# Reference: the supplement of paper PMC3334620
# Whole data set: some 33,000 sequences, median “E-score (-0.5 to 0.5)” near -0.016, cut for the highest 2% near 0.32. The list shows a part of the results.
# Target: T1, Stp1 (UniProt B3LFK1)
# T1 sequence: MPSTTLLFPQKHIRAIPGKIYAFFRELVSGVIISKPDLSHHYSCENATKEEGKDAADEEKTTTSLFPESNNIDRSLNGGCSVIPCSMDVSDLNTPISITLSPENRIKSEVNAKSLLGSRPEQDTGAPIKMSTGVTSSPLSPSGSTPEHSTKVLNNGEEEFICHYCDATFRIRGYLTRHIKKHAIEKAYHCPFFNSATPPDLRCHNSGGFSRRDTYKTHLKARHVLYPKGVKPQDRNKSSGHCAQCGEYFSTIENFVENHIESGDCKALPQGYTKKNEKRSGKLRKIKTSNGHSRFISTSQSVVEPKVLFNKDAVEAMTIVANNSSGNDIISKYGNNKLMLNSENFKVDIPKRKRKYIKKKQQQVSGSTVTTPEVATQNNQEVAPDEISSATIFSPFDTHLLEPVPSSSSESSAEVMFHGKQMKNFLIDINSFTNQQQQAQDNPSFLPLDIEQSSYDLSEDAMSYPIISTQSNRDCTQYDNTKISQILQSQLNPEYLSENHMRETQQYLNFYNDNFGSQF
# Assay: PBM E-score (8-mer binding enrichment) (E-score (-0.5 to 0.5)); higher = stronger / more preferred TF binding; most listed sequences are background and not binding sites
# Conditions: protein concentration: 200 nM; construct: GST-full length
# Method in brief: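 Detection of bound protein used fluorescent anti-GST, with scans normalised by masliner. The proteins were GST-tagged yeast transcription factors applied at about 100-200 nM to universal all-10-mer Agilent arrays made double-stranded by primer extension. Each ungapped eight-base word, pooled with its reverse complement, was scored with an E-score from the Universal PBM Analysis Suite.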
row,Sequence,PBM E-score
1,GCCCGTCC,-0.18
2,ACTTCTAA,0.0244
3,ACGGTACG,0.0976
4,TACTTGCA,0.0312
5,TGCCAGAA,0.0129
6,GAGAAGAA,-0.0998
7,AGCGATTG,-0.0941
8,ACTGAGAG,-0.0514
9,ATATGCCG,0.347
10,AGTAGCTC,-0.252
11,GACAGTCA,-0.127
12,GTAAATAA,0.0833
13,TAGTTTCA,0.107
14,CACAGACG,-0.044
15,AGGACATA,-0.0087
16,GTATCCTA,-0.143
17,GACATAAA,0.16
18,GTCCTGTA,-0.121
19,ACTGGACT,-0.208
20,GGAACTCC,-0.0296
21,TACATGAA,-0.0242
22,CACCTCGG,0.0783

row,Sequence,PBM E-score
1,CTACGTTA,0.114
2,GTTGTTCA,0.0242
3,TAGTACTA,0.218
4,ACCGCCGG,-0.0408
5,GAATTAAA,-0.0221
6,ATTAGGTC,0.0664
7,AGCACTTA,-0.152
8,GCCTGTGA,-0.193
9,GTCGTCAC,-0.0794
10,ACGGTGAA,0.122
11,CTAGATCC,-0.0999
12,CCTAAACC,-0.261
13,CGACACAG,0.153
14,AGCATGCT,-0.322
15,CCCAACAA,0.0569
16,ATTATTAG,0.057
17,GGTCTCAA,-0.0324
18,CTAAACCC,-0.146
19,GGTCGTCA,-0.175
20,AACTACCA,-0.116
21,CACCACGG,-0.12
22,AAGCTTAA,-0.00455

row,Sequence,PBM E-score
1,GCTCTGCA,-0.182
2,CACATACA,0.114
3,ATTTTGGG,0.163
4,CAAACTTA,0.174
5,CCACGGAG,0.159
6,AAGCTAAG,-0.136
7,TCCAAGAA,-0.018
8,CACCCAGG,-0.168
9,TTCTCAAA,0.256
10,CCAGTTTC,-0.167
11,ATATATTG,-0.0406
12,GAGCTGAA,-0.254
13,AATCACGC,0.0793
14,ATTGGGCG,0.0623
15,CTATTTAC,0.0293
16,TCCCGCCA,-0.224
17,GGCTTATA,-0.0671
18,ACCGAGTA,-0.195
19,TATTGCGA,0.165
20,CTGGTATA,-0.172
21,ATACCTAT,-0.0286
22,ATAGAGGG,-0.13

row,Sequence,PBM E-score
1,ACTTCTCC,-0.269
2,ACTAAGAT,0.163
3,TGGTAAAA,0.15
4,GCGAGTGA,0.11
5,AACATCAA,0.101
6,CGTAGGTC,-0.356
7,AATGCAAG,0.0552
8,CGTCTCAC,0.0579
9,CGAGAGAC,-0.178
10,CAATCCGC,0.0215
11,GAGTCTGA,-0.206
12,ATTTGTAC,-0.035
13,CATAGACA,0.0911
14,AGCGGCCC,-0.00454
15,AAATGCGT,0.00095
16,TCATGTAA,0.0364
17,ACTACAGT,0.0222
18,CAAGCCTG,-0.17
19,GCGTTCAC,0.0183
20,ATGTTGCC,0.269
21,CATCACGC,-0.0336
22,ATGCTTAA,-0.0124

row,Sequence,PBM E-score
1,AAGCTACA,0.00573
2,AAGATTAA,0.084
3,GAAACCTA,-0.22
4,GACCCTTA,-0.196
5,CATTCCTC,-0.115
6,AGCCCAGC,-0.159
7,ACAGGGAA,-0.0492
8,AATTGTAA,0.113
9,TGTTACAA,0.166
10,GTACTCGA,-0.0712
11,GAGATCTA,-0.202
12,CATATGAA,0.118
13,GGAGCTAC,-0.0121
14,AGAGTCTG,-0.255
15,ACGCTCGC,-0.0463
16,GTCCACGA,-0.00812
17,AGCTAATC,0.108
18,TAGCCAGA,0.0735
19,CATAACAG,0.222
20,CTTAAAGA,0.0788
21,AGGAACGG,0.228
22,ATTAACAC,0.117
